The supplement of paper PMC3334620
Whole data set: some 33,000 sequences, median “E-score (-0.5 to 0.5)” near -0.04, cut for the highest 2% near 0.36. Some of the results follow.

Each sequence was assayed against T1, Hmlalpha2 (UniProt P0CY09) (assay: PBM E-score (8-mer binding enrichment) (E-score (-0.5 to 0.5)); higher = stronger / more preferred TF binding; most listed sequences are background and not binding sites). Settings: protein concentration: 200 nM; construct: GST-full length.
T1 sequence: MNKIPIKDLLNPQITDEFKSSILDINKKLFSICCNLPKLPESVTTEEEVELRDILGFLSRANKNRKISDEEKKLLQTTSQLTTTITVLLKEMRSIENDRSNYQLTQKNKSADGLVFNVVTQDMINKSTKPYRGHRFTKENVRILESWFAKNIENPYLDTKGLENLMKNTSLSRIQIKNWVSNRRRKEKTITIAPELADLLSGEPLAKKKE
Procedure, shortened: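 E-scores (a modified Wilcoxon-Mann-Whitney statistic) were assigned by the Universal PBM Analysis Suite to every ungapped eight-base word pooled with its reverse complement. The input came from universal all-10-mer Agilent arrays made double-stranded by primer extension and probed with GST-tagged yeast transcription factors at about 100-200 nM. Fluorescent anti-GST detected bound protein, and masliner normalised the scans.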

| Sequence | PBM E-score |
| --- | --- |
| AGCTGCCA | -0.134 |
| GCTCCCAC | -0.216 |
| CGTTCCGC | 0.00967 |
| CTGGATTC | -0.214 |
| ACTTCCTC | -0.19 |
| CAGCCCTG | -0.0988 |
| AAGACAAA | 0.0838 |
| CAGCGGAC | -0.139 |
| ATTACAAC | 0.4 |
| ATACCTCA | -0.072 |
| CACTAAAG | -0.0746 |
| CTTTGATC | -0.194 |
| TAAAGGTA | 0.0933 |
| ATTGCTCA | -0.00957 |
| CAATCCGG | -0.173 |
| CAGCTACC | -0.168 |
| ATTTGCTC | -0.155 |
| AGATTGTG | 0.0599 |
| TCCCGTAA | -0.0167 |
| CGACGCAG | 0.083 |
| AGAGAAAG | -0.18 |
| GCTGAAGA | -0.152 |
| AACTGCAC | 0.0702 |
| AACAGCTG | -0.00651 |
| CAACTGTA | 0.0556 |

| Sequence | PBM E-score |
| --- | --- |
| CCACTTCG | -0.23 |
| ATTGTTTC | 0.0454 |
| CCCGAGGA | -0.237 |
| ATGTCAGG | 0.117 |
| CTGGTTTA | 0.0556 |
| CACCTAAC | -0.14 |
| TCTCGACA | 0.261 |
| AGTACACA | 0.387 |
| GCTTTCGA | -0.124 |
| CTTGTCTC | -0.192 |
| CAAGATTA | 0.104 |
| CAAAAGAA | 0.121 |
| CTCTGTGC | -0.246 |
| CCATGCTC | -0.13 |
| AAAGCCCC | -0.271 |
| CAAAGCAG | 0.0305 |
| AGGAGGAG | -0.218 |
| CTTTGATA | -0.0072 |
| CGGTGTTC | -0.0917 |
| ACTTATAT | 0.212 |
| ATCTTTAA | 0.109 |
| ACAGGCGT | -0.058 |
| AGGGGCGC | -0.172 |
| AAGGAGCC | -0.289 |
| AAACTTTC | -0.132 |

| Sequence | PBM E-score |
| --- | --- |
| ATCAGAGG | -0.126 |
| ATTAATGA | 0.0848 |
| ACGTGAGG | -0.127 |
| AAACAATC | 0.131 |
| ATACATGG | 0.451 |
| CAATCCCA | -0.306 |
| CGCTTGAA | 0.133 |
| GCTCACAC | 0.00037 |
| AGGCGAAT | -0.0424 |
| GGTACGAA | -0.0157 |
| ATGCTGGG | -0.0354 |
| GAGATGCA | -0.00777 |
| ACCAGTCG | 0.0992 |
| AATTTACG | 0.272 |
| AAGTCGGC | -0.134 |
| CAGAGAAA | 0.0278 |
| ATCGTGTC | 0.358 |
| GTTAGTTA | 0.306 |
| AATAGATG | 0.148 |
| CGTGCTGC | -0.0508 |
| ACACTCGA | 0.0872 |
| GCCGAGCC | -0.127 |
| CACTGTCC | -0.0263 |
| CTCTCCGC | -0.0537 |
| CATTTGAA | -0.0158 |

| Sequence | PBM E-score |
| --- | --- |
| CTGCAACC | -0.291 |
| AACTGATA | 0.0148 |
| CCCAGCCG | -0.369 |
| GTACTTTA | 0.163 |
| TAGTGAAA | 0.0195 |
| CCCTAGGC | -0.231 |
| GGACCTTA | -0.238 |
| CGTACTAG | 0.089 |
| CTACCCGA | -0.0897 |
| ATGACCGA | -0.152 |
| AGAGGCGG | -0.231 |
| CGGGCACC | -0.182 |
| AAACTCTG | 0.0965 |
| GGTACCAA | -0.131 |
| ATTTTCTA | 0.106 |
| AAAAGTTC | 0.0929 |
| TATACCCA | -0.175 |
| ATGCGTAA | 0.375 |
| CCCTTGCG | -0.138 |
| AGTGTATC | 0.0798 |
| CGCAAGTC | -0.316 |
| AGGGTCGG | -0.221 |
| AGAGCACT | -0.0915 |
| CGGGTATA | 0.00682 |
| GAAACACC | 0.0502 |

| Sequence | PBM E-score |
| --- | --- |
| CCGCTGGC | -0.298 |
| CATAAGGG | -0.0564 |
| AGCCTATA | -0.0454 |
| GCCCACTA | -0.0975 |
| AGTCCCCG | -0.23 |
| AATTGATC | -0.122 |
| AGTGAGAT | -0.121 |
| CTCCACCA | -0.25 |
| GGTCTAAA | 0.0137 |
| ACATACGG | 0.233 |
| TAAGACCA | 0.0825 |
| CGAGCTGC | -0.166 |
| GAAACAAC | 0.0246 |
| ACTTTCTA | 0.101 |
| GGACCAGA | 0.0155 |
| AACGACCA | 0.0222 |
| AGAACTGG | -0.133 |
| GGGGGCTA | -0.311 |
| ATGCTTCA | 0.0129 |
| GGAGGACA | -0.0504 |
| AATACTGA | 0.14 |
| AATGGCAT | 0.0838 |
| AAGCGACC | 0.0134 |
| TACAGGGA | 0.0767 |
| CGTCGGAC | -0.223 |

| Sequence | PBM E-score |
| --- | --- |
| ATCGTACC | -0.223 |
| AAGTCCAA | -0.0117 |
| CAGCTTAC | 0.117 |
| AATTTCCA | 0.18 |
| CACGCAAA | 0.11 |
| GGTAGGCA | -0.21 |
| AAAGGTGC | -0.175 |
| GGGACTAA | -0.172 |
| AGCTGCTC | -0.17 |
| CGAGTTGA | 0.0373 |
| GCGCATCA | -0.0684 |
| GCACGGAA | -0.101 |
| AAAAGGGC | -0.138 |
| AGGTAGAA | -0.0176 |
| CGCGGGAA | 0.0028 |
| AGTGATGA | -0.152 |
| GTGAGTTA | 0.0231 |
| AGTATTAA | 0.249 |
| CTCGCAAG | 0.00268 |
| CCGCCGAA | -0.15 |
| ACCCAGGC | -0.013 |
| GGAGATCA | -0.209 |
| ATGGGGCA | -0.244 |
| CAACTGAA | -0.0485 |
| AAGACATA | 0.0988 |

| Sequence | PBM E-score |
| --- | --- |
| CTCGGGGA | -0.113 |
| AACAAGTC | 0.16 |
| ACATCTAT | 0.184 |
| CTCCAGAA | -0.12 |
| AGCACCCC | -0.21 |
| GGACATAA | 0.05 |
| CCTCACTC | -0.191 |
| CGGCGGTC | -0.26 |
| AGGCTAAC | 0.0383 |
| GTGTTGTA | 0.382 |
| CAACACCC | -0.0107 |
| CTCGCCCC | -0.317 |
| TAGTAAGA | 0.109 |
| ATAATAAG | 0.166 |
| ATAGCTTG | -0.0587 |
| GTAAAATA | 0.2 |
| AACCGGCT | -0.0852 |
| ACGCTGAT | 0.233 |
| CAGTGTCC | -0.116 |
| CCACCTTA | -0.00683 |
| GTCAGGAA | 0.00561 |
| GCGTCCAC | -0.16 |
| AATTGGTG | -0.193 |
| CGTATAAC | 0.251 |
| ACGGCGTC | -0.0814 |

| Sequence | PBM E-score |
| --- | --- |
| ATACTGCC | -0.166 |
| CATTTCCA | 0.133 |
| GCTTAAAA | 0.00493 |
| AATGAGCG | 0.028 |
| CGATATCC | -0.0816 |
| ATACAAGA | 0.323 |
| GGATCTAC | 0.0822 |
| CGATGTAA | 0.417 |
| AACTGACC | -0.307 |
| GGTATGGA | -0.18 |
| AACAACCA | 0.22 |
| CTCCATCC | -0.1 |
| ACGCGTAG | 0.298 |
| CATCACGG | -0.0883 |
| CTAAGCAC | -0.0824 |
| GACTAGGC | -0.154 |
| AAGGTGCT | -0.177 |
| CCCAATGA | -0.161 |
| TCGAAAGA | -0.0098 |
| CTCCCTTA | -0.254 |
| CCCATGTC | 0.161 |
| CCATCCTA | -0.19 |
| CGGGCCAC | -0.312 |
| TAGAATCA | 0.0335 |
| ATTAACCC | 0.0714 |

| Sequence | PBM E-score |
| --- | --- |
| ACTAGTGA | -0.0716 |
| CTAAATTA | 0.189 |
| GCAGCCGC | -0.213 |
| GGTCGCCA | -0.341 |
| AGTAGCGC | -0.0395 |
| GCTTGGAC | -0.267 |
| AAAACTTG | 0.0078 |
| GCCCAAGC | -0.248 |
| CACGGGAC | 0.0197 |
| AATGCGAC | 0.109 |
| GAGACTAA | -0.166 |
| CACCCGCG | 0.143 |
| CGGGCAGC | -0.188 |
| GCGGGTCA | 0.0968 |
| AGCCGTTA | -0.0185 |
| GCCGCGGA | -0.246 |
| CTAGTCAG | -0.223 |
| GGCCCTAA | -0.136 |
| CGGATCCG | -0.145 |
